These results are taken from a collection of fitness landscapes (doi:10.1016/j.celrep.2020.107928).

The labels stand for the following.
B1: Caulobacter ParB omega fusion; a variant is named by its letters at X, in order, B8GW30 (parent)
chain: MESVVVGEPGMSEGRRGLGRGLSALLGEVDAAPAQAPGEQLGGSREAPIEILQRNPDQPRRTFREEDLEDLSNSIREKGVLQPILVRPSPDTAGEYQIVAGERAWRAAQRAGLKTVPIMVRELDDLAVLEIGIIENVQRADLNVLEEALSYKVLMEKFERTQENIAQTIGKSXSHVANXMRLLXLPDEVQSYLVSGELTAXHARAIAAAADPVALAKQIIEGGLSVRETEALARKAPNLSAGKSKGGRPPRVKDTDTQALESDLSSVLGLDVSIDHRGSTGTLTITYATLEQLDDLCNRLTRGI

The full ranking holds about 81,000 sequences; the median of “one-hybrid fitness for binding parS DNA” is about -0.17, and the highest 2% start at about 0.51. The list shows a part of the results. A value given as a limit tells only on which side of the number the result lay.

Variants of B1 are the subject of this assay. The experiment in a line: one-hybrid fitness for binding parS DNA (scaled: cognate 1, non-cognate 0); higher = stronger binding. As to conditions: with parS DNA site. An outline of the steps:
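Fitness here means the log change in variant-to-wild-type read ratio between plasmids sequenced before and after selection. That scale was set so cognate equals 1 and non-cognate equals 0. The selection was a bacterial one-hybrid screen of Caulobacter ParB libraries, four specificity codons randomised, in E. coli USO carrying a HIS3 reporter with the site 19 bp from the promoter, grown 48 hours at 37°C on M9-minus-histidine with 0.1 mM IPTG and 5 mM 3-AT.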
In the case of LSRN, the “one-hybrid fitness for binding parS DNA” value was no more than 0.2.
Consider HDAW, for which the “one-hybrid fitness for binding parS DNA” value was no more than 0.2.
Regarding DQTC, the “one-hybrid fitness for binding parS DNA” value is no more than 0.2.
With KTDS the figure was no more than 0.2; with QMLL, no more than 0.2.
As to DRKH, the “one-hybrid fitness for binding parS DNA” value is no more than 0.2.
On to NRHL, for which the “one-hybrid fitness for binding parS DNA” value was no more than 0.2.
In the case of KWAC, the “one-hybrid fitness for binding parS DNA” value is no more than 0.2.
The figure for PTLW is no more than 0.2; for TMSK it is no more than 0.2; for QQAQ it is 0.324.
With SLRG the figure was no more than 0.2; with GLYH, no more than 0.2.
Regarding IYSP, the “one-hybrid fitness for binding parS DNA” value is no more than 0.2.
Take PDKS: the “one-hybrid fitness for binding parS DNA” value was no more than 0.2.
The figure for NKTR is no more than 0.2.
The figure for VRAN is no more than 0.2; for MTGV it is no more than 0.2; for IPQS it is no more than 0.2.
For the variant RYMP, the “one-hybrid fitness for binding parS DNA” value was no more than 0.2.
On to EIKT, for which the “one-hybrid fitness for binding parS DNA” value was no more than 0.2.
Take RPFI: the “one-hybrid fitness for binding parS DNA” value is no more than 0.2.
The figure for LCTV is no more than 0.2; for QDTR it is no more than 0.2.
For the variant YGVD, the “one-hybrid fitness for binding parS DNA” value is no more than 0.2.
The figure for AFIR is no more than 0.2.
With VLIS the figure was no more than 0.2; with YHPI, no more than 0.2; with QCMY, no more than 0.2.
As for IINS, the “one-hybrid fitness for binding parS DNA” value was no more than 0.2.
Regarding MERM, the “one-hybrid fitness for binding parS DNA” value is no more than 0.2.
With WFSL the figure was no more than 0.2; with PWPM, no more than 0.2; with MHDS, no more than 0.2.
The figure for EQFS is no more than 0.2; for SDKY it is no more than 0.2; for ESEG it is no more than 0.2.
Consider MCGW, for which the “one-hybrid fitness for binding parS DNA” value is no more than 0.2.
As to PFRK, the “one-hybrid fitness for binding parS DNA” value was no more than 0.2.
With SNHW the figure was no more than 0.2; with SYTC, no more than 0.2.
With MMMF the figure was no more than 0.2.
With RYVS the figure was 0.976.
In the case of RKTI, the “one-hybrid fitness for binding parS DNA” value was no more than 0.2.
With SFRH the figure was no more than 0.2; with TEAN, no more than 0.2; with VVSF, no more than 0.2.
Take WWSS: the “one-hybrid fitness for binding parS DNA” value is no more than 0.2.
The figure for WIWV is no more than 0.2.
The figure for RMHH is 0.274; for QPGK it is no more than 0.2; for QAIS it is no more than 0.2.
Regarding RRDN, the “one-hybrid fitness for binding parS DNA” value turned out to be 0.257.
Turning to PGSD, the “one-hybrid fitness for binding parS DNA” value is no more than 0.2.
HKRL: the “one-hybrid fitness for binding parS DNA” value was no more than 0.2.
With EPTG the figure was no more than 0.2; with GLTI, no more than 0.2; with LHNP, no more than 0.2.
Consider GQDQ, for which the “one-hybrid fitness for binding parS DNA” value is no more than 0.2.
The figure for TVIR is no more than 0.2; for GMEL it is no more than 0.2; for INNR it is no more than 0.2.
For IPPL, the “one-hybrid fitness for binding parS DNA” value is no more than 0.2.
The figure for VLHL is no more than 0.2; for DSHT it is no more than 0.2; for ACGI it is no more than 0.2.
Consider RYFA, for which the “one-hybrid fitness for binding parS DNA” value amounted to 0.573.
With RQSS the figure was 0.979; with LMNS, no more than 0.2.
The figure for HTQE is no more than 0.2; for SPMF it is no more than 0.2.
With NSYN the figure was no more than 0.2; with AEFL, no more than 0.2.
VQKR: the “one-hybrid fitness for binding parS DNA” value was no more than 0.2.
With SYSP the figure was no more than 0.2; with LWVW, no more than 0.2.
With FTRC the figure was no more than 0.2; with RAIY, 0.36.
With AYML the figure was no more than 0.2; with PRYW, no more than 0.2; with YMHR, no more than 0.2.
In the case of HNPS, the “one-hybrid fitness for binding parS DNA” value is no more than 0.2.
The figure for KIPY is no more than 0.2; for RAWR it is no more than 0.2.
With DAYR the figure was no more than 0.2; with TQCI, no more than 0.2; with KCTS, no more than 0.2.
With MKRR the figure was no more than 0.2; with WFRS, no more than 0.2; with KRNE, no more than 0.2.
With PTCE, the “one-hybrid fitness for binding parS DNA” value was no more than 0.2.
With WHMR the figure was no more than 0.2; with AGDA, no more than 0.2.
With QLFT the figure was no more than 0.2; with QSPV, no more than 0.2; with DQLT, no more than 0.2.
As for VEAC, the “one-hybrid fitness for binding parS DNA” value is no more than 0.2.
With MEPY, the “one-hybrid fitness for binding parS DNA” value was no more than 0.2.
Regarding PFSC, the “one-hybrid fitness for binding parS DNA” value was no more than 0.2.
With TFAI the figure was no more than 0.2.
The figure for TNAG is no more than 0.2.
Take YPRM: the “one-hybrid fitness for binding parS DNA” value is no more than 0.2.
With MYGR the figure was no more than 0.2; with VWSN, no more than 0.2.
The figure for YTTC is no more than 0.2.
On to IARE, for which the “one-hybrid fitness for binding parS DNA” value was no more than 0.2.
With SKVQ, the “one-hybrid fitness for binding parS DNA” value was no more than 0.2.
Turning to SPNV, the “one-hybrid fitness for binding parS DNA” value was no more than 0.2.
The figure for VKQS is no more than 0.2; for AHVE it is no more than 0.2; for FHTC it is no more than 0.2.
For the variant GPMQ, the “one-hybrid fitness for binding parS DNA” value was no more than 0.2.
The figure for QPWT is no more than 0.2; for SHVV it is no more than 0.2; for YDSA it is no more than 0.2.
For the variant PDLD, the “one-hybrid fitness for binding parS DNA” value was no more than 0.2.
As for QMEV, the “one-hybrid fitness for binding parS DNA” value is no more than 0.2.
Consider KGTN, for which the “one-hybrid fitness for binding parS DNA” value is no more than 0.2.
Take HTAA: the “one-hybrid fitness for binding parS DNA” value is no more than 0.2.
QFWF: the “one-hybrid fitness for binding parS DNA” value was no more than 0.2.
As for DGVR, the “one-hybrid fitness for binding parS DNA” value is no more than 0.2.
As to WYYL, the “one-hybrid fitness for binding parS DNA” value is no more than 0.2.
The figure for LEDG is no more than 0.2; for QQNT it is no more than 0.2; for QGAH it is no more than 0.2.
NDCS: the “one-hybrid fitness for binding parS DNA” value was no more than 0.2.
Turning to FQLA, the “one-hybrid fitness for binding parS DNA” value is no more than 0.2.
The figure for RASQ is no more than 0.2; for HSAP it is no more than 0.2.
Regarding RKAE, the “one-hybrid fitness for binding parS DNA” value is no more than 0.2.
With IPRS the figure was no more than 0.2.
The figure for KKHG is no more than 0.2; for PFTV it is no more than 0.2.
With LVYI, the “one-hybrid fitness for binding parS DNA” value was no more than 0.2.
Consider EFPK, for which the “one-hybrid fitness for binding parS DNA” value was no more than 0.2.
WHTR: the “one-hybrid fitness for binding parS DNA” value was no more than 0.2.
GCPK: the “one-hybrid fitness for binding parS DNA” value was no more than 0.2.
For the variant KHHF, the “one-hybrid fitness for binding parS DNA” value is no more than 0.2.
For GHCS, the “one-hybrid fitness for binding parS DNA” value was no more than 0.2.
The figure for GILG is no more than 0.2.
Take DHGG: the “one-hybrid fitness for binding parS DNA” value was no more than 0.2.
Regarding VGIT, the “one-hybrid fitness for binding parS DNA” value was no more than 0.2.
In the case of APNN, the “one-hybrid fitness for binding parS DNA” value is no more than 0.2.
For PHGT, the “one-hybrid fitness for binding parS DNA” value is no more than 0.2.
Take YHDR: the “one-hybrid fitness for binding parS DNA” value was no more than 0.2.
For the variant NWTR, the “one-hybrid fitness for binding parS DNA” value is no more than 0.2.
The figure for LQTA is no more than 0.2; for CVLI it is no more than 0.2.
The figure for DKAD is no more than 0.2; for PNRG it is no more than 0.2.
With MGDS, the “one-hybrid fitness for binding parS DNA” value was no more than 0.2.
Regarding ARHA, the “one-hybrid fitness for binding parS DNA” value is no more than 0.2.
The figure for LLRF is no more than 0.2.
